# Measured values taken from PubChem BioAssay AID743279 (National Center for Advancing Translational Sciences (NCATS), 2014).
# Among all 360,000 compounds or so, about 17,000 (4.7%) were called active. The shares of active, inactive and inconclusive entries below differ from those in the screen. No stated cut-off is given here; in the data, active means activity change below about -50%; inconclusive means mostly about -30% to -49%; inactive means weaker than that.
# Assay: qHTS for Inhibitors of Inflammasome Signaling: IL-1-beta AlphaLISA Primary Screen
# Details: THP-1 LPS/ATP IL-1B secretion, 16 h; at 57.5 µM, stronger effect = lower value
# Procedure, shortened: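 Secreted IL-1B measured by AlphaLISA bead assay after 16 h compound exposure of THP-1 cells; compounds (final up to 57.5 uM) added 1 h before LPS (250 ng/mL) and ATP (1.25 mM) stimulation; lower signal means less secretion.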
# On the % scale 0 is the no-effect control and ±100 the full control effect.
row,Compound,activity change
1,Cc1cccc(NC(=O)c2ccccc2NC(=O)c2ccco2)c1,inconclusive: -37.2%
2,O=C1CC(Sc2ncccn2)C(=O)N1c1ccccc1 (stereo not given),inactive: -2.61%
3,O=C(COc1ccc(Br)cc1F)NCC1(N2CCCCC2)CCCCC1,inactive: -9.53%
4,O=[N+]([O-])c1cc(S(=O)(=O)C(F)(F)F)ccc1N1CCN(c2ccccc2)CC1,inconclusive: -48.4%
5,O=c1[nH]c(C2CCN(S(=O)(=O)c3ccc(S(=O)(=O)NC4CC4)cc3)CC2)nc2c1nnn2Cc1cccc(F)c1,inconclusive: -37.6%
6,COc1ccc(-c2cc(C(F)(F)F)nc(S(=O)(=O)CCCC(=O)Nc3cccnc3Cl)n2)cc1OC,active: -107%
7,COc1ccc(NC(=O)c2cccc(N3C(=O)C4CCC(C)CC4C3=O)c2)c(OC)c1 (stereo not given),inactive: 13.7%
8,COc1cc(OC)cc(C(=O)N[C@H](C(=O)NC2CCCc3ccccc32)C(C)C)c1 (stereo not given in full),inactive: 16.5%
9,Cn1c(NCc2ccccc2)nc2c1c(=O)n(Cc1ccc(Br)cc1)c(=O)n2C,inconclusive: -35.6%
10,CC1CCc2sc(C(=O)N/N=C/c3ccc([N+](=O)[O-])cc3)cc2C1 (stereo not given),inactive: 3.54%
11,O=P(COCCCCCOCP(=O)(c1ccccc1)c1ccccc1)(c1ccccc1)c1ccccc1,inconclusive: -46.6%
12,CSCCC(c1nc2ccccc2[nH]1)n1c(=O)c(-c2cccnc2)nc2ccccc21 (stereo not given),inconclusive: -40%
13,Cc1ccc(S(=O)(=O)N2CCN(C(=O)C(O)c3ccccc3)CC2)cc1 (stereo not given),inactive: 0.569%
14,O=C(CSc1ccccn1)N/N=C/c1cc([N+](=O)[O-])ccc1O,inactive: 243%
15,COc1ccc(N2CCN(c3oc(COc4ccccc4Cl)nc3C#N)CC2)cc1,inconclusive: -44.5%
16,CCOC(=O)C1=C(c2ccccc2)NC(N)=NC1c1ccc(OCc2ccc(Cl)cc2)c(OC)c1 (stereo not given),inconclusive: -45.1%
17,CCO[C@H]1OC(C(=O)N2CCN(Cc3ccc4c(c3)OCO4)CC2)=C[C@@H](c2ccc(Br)cc2)[C@@H]1CCCO,inconclusive: -44.3%
18,CC1=C(C(=O)OCCNC(=O)c2ccccc2O)C(c2ccccc2[N+](=O)[O-])C(C(=O)OCC2CCCO2)=C(C)N1 (stereo not given),active: -57.9%
19,CN(C)CCCN1c2ccccc2CCc2ccccc21,inconclusive: -35.2%
20,Cc1oc(-c2ccc(F)cc2)nc1CN1CCCC(C(=O)N2CCOCC2)C1 (stereo not given),inactive: -6.31%
21,CCOC(=O)C1(C)CCCN(C(=O)c2ccc(-c3ccccc3)cc2)C1 (stereo not given),inactive: 4.74%
22,CCCN(CC1CC1)C(=O)CSc1nnc(-c2cc(-c3cccs3)nc3ccccc23)o1,inconclusive: -37.6%

row,Compound,activity change
1,CC(=O)Nc1ccc(Oc2nc(-c3ccccn3)nc3ccccc23)cc1,active: -94%
2,COC(=O)[C@]1(CC(C)C)N[C@H](c2ccc(-c3cccc(Cl)c3)cc2)[C@@H]2C(=O)N(C)C(=O)[C@@H]21,inconclusive: -30.5%
3,COc1ccc([C@H]2CC(=O)C=C(/C=C/Cc3ccccc3)C2)cc1,inconclusive: -44.5%
4,COc1ccc(Nc2oc(-c3ccco3)nc2S(=O)(=O)c2ccc(F)cc2)cc1,active: -56.9%
5,O=C(Cn1cnc2c(nnn2-c2ccccc2)c1=O)N1CCOCC1,inactive: 12.4%
6,O=C(CSc1nnc(-c2ccccc2Br)o1)N1CCc2ccccc2C1,active: -59.7%
7,Cc1cc(C(=O)COc2ccc(F)cc2Br)c(C)n1C,inconclusive: -32.5%
8,COc1ccc(Br)cc1CNC(=O)C1CCN(c2nnc(N3CCCC3=O)s2)CC1,inconclusive: -35.6%
9,COc1cc2c(cc1OC)C1(NCC2)C(=O)Nc2ccccc21 (stereo not given),inactive: -5.94%
10,Cc1ccccc1NC(=O)CSc1nnc(Cc2ccccc2)c(=O)n1N,inactive: -6.15%
11,CCOC(=O)c1ccc(NC(=O)CC2Sc3ncnn3C2=O)cc1 (stereo not given),inconclusive: -30.1%
12,ClCc1ncc(-c2ccc(Cl)cc2)o1,inconclusive: -49.9%
13,O=C(/C=C/c1ccc(F)cc1)c1ccccc1Br,inconclusive: -32.5%
14,COc1cc(NC(=O)c2cccc3c2C(=O)N(C2CCCCC2)C3)cc(OC)c1OC,active: -60.4%
15,C(=N\n1cnnc1)/c1ccc(-c2ccccc2)cc1,inconclusive: -35%
16,C=CCNCCCCOc1ccc(OCc2ccccc2)cc1,active: -50.9%
17,COc1cc(/C=C/C(=O)Nc2ccc3nc4n(c(=O)c3c2)CCCC4)cc(OC)c1OC,inconclusive: -35%
18,CCCCNC(=O)c1nc(C2CCNCC2)oc1-c1cccc(C(F)(F)F)c1,inconclusive: -49.3%
19,O=c1ccn([C@@H]2O[C@H](CNCc3c(OCc4ccccc4F)ccc4ccccc34)[C@@H](O)[C@H]2O)c(=O)[nH]1,active: -57.8%
20,COc1ccc(Oc2c(OC)cc([N+](=O)[O-])c3ncccc23)cc1,inconclusive: -39.9%
21,O=C(NCCc1nnc2ccc(NCc3ccc(Cl)cc3)nn12)c1ccccc1,inconclusive: -41.3%
22,Cn1c2ccccc2n2c(=O)c(Cl)c(-c3ccccc3)c(C#N)c12,inactive: -13%

row,Compound,activity change
1,CCC(C)(C)n1nnnc1CN1CCN(c2nc3ccc(C)cc3cc2C#N)CC1,active: -68.2%
2,CC(C)(c1ccccc1)c1ccc(OCCn2cnc3ccccc3c2=O)cc1,inconclusive: -30.1%
3,CCCC(C(=O)NCC1CCCO1)N(C(=O)CNS(=O)(=O)c1ccccc1)c1ccc(F)cc1 (stereo not given),inactive: 23.3%
4,CCOC(=O)C1Nc2c(F)cc(C)cc2C2c3ccccc3CC12 (stereo not given),inconclusive: -37.9%
5,C=CCNC(=O)/C(C#N)=C/c1ccc(C(=O)O)cc1,inactive: 7.79%
6,COc1ccc(C(=O)NCCn2cc(SCC(=O)NCC3CCCO3)c3ccccc32)cc1OC (stereo not given),inactive: 2.69%
7,CCn1c(COc2cccc3cccnc23)nnc1SC(F)F,inactive: -10.1%
8,COc1ccc(CNC(=O)c2cc(C3CC3)nc3c2cnn3C(C)C)cc1,inconclusive: -32.5%
9,Cc1c(NC(=O)/C(C#N)=C\c2cccs2)c(=O)n(-c2ccccc2)n1C,inactive: 6.72%
10,CN(C)C(=O)CSc1nc2ccccc2n1CC(=O)N1CCN(c2ccccc2)CC1,inconclusive: -49.4%
11,O=C(Cc1ccc(Br)cc1)OCC(=O)N1CCc2ccccc2C1,inactive: 17.1%
12,O=C(Nc1ccc(Cl)c(Cl)c1)N1CCSC1c1ccco1 (stereo not given),inconclusive: -36.9%
13,CCOC(=O)c1ccc(N2C(=O)C=CC2=O)cc1,active: -89.5%
14,CN(CCOc1ccc(F)cc1)Cc1ccccc1,inactive: -3.37%
15,Cc1cccn2c(=O)c(C(=O)NC3CCCCC3)c(O)nc12,inactive: -3.36%
16,O/N=C/c1ccccc1OCc1ccc(Cl)cc1,active: -95.8%
17,CS(=O)(=O)N(CC(O)Cn1c2ccccc2c2ccccc21)c1ccccc1 (stereo not given),inconclusive: -38.9%
18,CCN(Cc1ccccc1)S(=O)(=O)c1ccc(C(=O)N(CCCN(C)C)c2nc3c(C)c(C)ccc3s2)cc1,active: -84%
19,CCC(C)NCCOc1ccc(C)cc1[N+](=O)[O-] (stereo not given),active: -53.6%
20,N#C/C(=C\C1CC=CCC1)c1nc2ccccc2[nH]1 (stereo not given),active: -51.7%
21,CN(C)CCNC(=O)c1ccc(Cl)c2cc3ccccc3nc12,active: -112%
22,COc1cc2ccccc2cc1C(=O)Nc1ccc(N2CCN(C(=O)C(C)C)CC2)cc1,inactive: 1.66%

row,Compound,activity change
1,Cc1cccc(NC(=S)N/N=C2\CC(C)(C)Oc3ccc(O)cc32)c1,inconclusive: -43.9%
2,Cc1ccc(NC(=O)C2C(c3ccccc3)C2(Cl)Cl)c(C)c1 (stereo not given),inconclusive: -32.4%
3,O=C1NC(=S)S/C1=C/c1ccc(OC(=O)c2ccco2)cc1,inconclusive: -35.8%
4,CCOc1ccc(-n2cc(-c3ccccc3)c3c(N4CCOCC4)ncnc32)cc1,active: -88.4%
5,O=C(Nc1ccccc1Cl)C1CCCN(S(=O)(=O)c2ccc(-n3cnnn3)cc2)C1 (stereo not given),inactive: -0.29%
6,CN(C)C1=NCC(CSC(=N)N)S1 (stereo not given),inconclusive: -42.9%
7,O=C(CSc1n[nH]c(=O)n1C1CC1)N1N=C(c2ccc(Cl)cc2)CC1c1ccco1 (stereo not given),inconclusive: -36.4%
8,Cc1cccc(CN2CCC(CNC(=O)Nc3ccc(F)c(Cl)c3)CC2)c1,active: -107%
9,CCn1cnc2scc(-c3ccc(OC)cc3)c2c1=O,inconclusive: -38.5%
10,NC(=O)CC[C@H](NC(=O)c1ccc(F)cc1)C(=O)N1CCN(Cc2ccc3c(c2)OCO3)CC1,inactive: -8.32%
11,O=C(CCNC(=O)N1CCn2c1nc1ccccc12)NCc1ccccc1Cl,inconclusive: -40.7%
12,O=C(NCc1ccco1)c1cccc2c(-c3ccc(F)c(F)c3)coc12,inconclusive: -32.3%
13,COc1ccc(-c2cc(C(F)(F)F)nc(SCCC(=O)N3CCCC3)n2)cc1,active: -52.4%
14,Cc1ccc(C)c(N2CCN(C(=O)C34CC5CC(C3)CC(n3nnc(C)n3)(C5)C4)CC2)c1,inconclusive: -49.2%
15,N#Cc1ccc(C(C(=O)NC2CCCCC2)n2c(=O)c(-c3ccco3)nc3ccccc32)cc1 (stereo not given),inconclusive: -38.8%
16,COc1ccccc1OCC(=O)NNC(=O)c1ccc2c(=O)n3c(nc2c1)CCC3,inconclusive: -36.6%
17,COc1ccc2c(C)c(CC(=O)N3CCN(C(=O)C4COc5ccccc5O4)CC3)c(=O)oc2c1C (stereo not given),inconclusive: -39.4%
18,Cc1onc(C(=O)Nc2ccc(OC(F)(F)F)cc2)c1[N+](=O)[O-],inconclusive: -46.7%
19,Cc1nc(N2CCN(C(=O)c3ccco3)CC2)c2c3c(sc2n1)CC(C)CC3 (stereo not given),inactive: -6.78%
